Source: PubChem BioAssay (Tox21)
“And” between values parts separate entries of the source, which are not always exact repeats. Equal values may be shown once. The inconclusive results got no clear call from the source; some entries with a clear call stand among them for comparison. For some assays here: A potency beside an inconclusive call is a rough fit, not a confirmed value. The source made the active and inactive calls. Unless noted, calls come from the whole dose curve; as a rule, active = well fitted cell-killing curve with a large enough effect in the repeat runs; inconclusive = weak or mixed curves, or effect the other way; inactive = no such curve, though single readings can be large or run the other way.

Columns and labels:
[1] = qHTS assay to identify small molecule agonists of the farnesoid-X-receptor (FXR) signaling pathway - cell viability counter screen (AID 743218); conditions: FXR-bla HEK293T viability, CellTiter-Glo luminescence, 16 h; viability change, negative = cytotoxic: at 62.6 µM (top of the series) unless noted; note: potency is the fitted concentration of half-maximal effect; nearly all actives have a fitted effect of over 45% in size
Procedure, shortened: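 FXR-UAS-bla HEK 293T cells exposed to compounds for 16 h at 37C. Cytotoxicity read in the same wells by CellTiter-Glo luminescence after 30 min at room temperature, following the beta-lactamase FRET read.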

[2] = target: Bile acid receptor (Homo sapiens) (UniProt Q96RI1); assay: qHTS assay to identify small molecule agonists of the farnesoid-X-receptor (FXR) signaling pathway (AID 743220; active = well fitted activation curve with a large enough effect in the signal ratio in the repeat runs, not every such curve was filed as active; inconclusive = weak or mixed curves, or effect the other way; the % refers to the signal ratio; note: % is set by controls: 0 for no effect and ±100 for the full control effect); conditions: HEK293T FXR-UAS-bla, beta-lactamase FRET ratio, 16 h; activation: at 62.6 µM (top of the series) unless noted
Chain of UniProt Q96RI1 (Q96RI1 whole entry, looked up): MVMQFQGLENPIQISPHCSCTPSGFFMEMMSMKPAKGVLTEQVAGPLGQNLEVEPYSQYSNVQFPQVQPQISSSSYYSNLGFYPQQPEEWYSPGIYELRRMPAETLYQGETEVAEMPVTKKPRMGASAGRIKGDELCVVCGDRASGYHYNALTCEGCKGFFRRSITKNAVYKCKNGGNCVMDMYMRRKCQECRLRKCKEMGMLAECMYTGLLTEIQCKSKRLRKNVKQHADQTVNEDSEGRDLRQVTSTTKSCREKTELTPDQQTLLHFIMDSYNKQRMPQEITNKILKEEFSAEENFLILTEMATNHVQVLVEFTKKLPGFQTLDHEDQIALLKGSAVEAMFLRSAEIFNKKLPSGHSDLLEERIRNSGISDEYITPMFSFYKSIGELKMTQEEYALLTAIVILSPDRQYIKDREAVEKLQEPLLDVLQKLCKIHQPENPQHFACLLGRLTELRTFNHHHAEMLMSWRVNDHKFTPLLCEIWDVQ
Procedure, shortened: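 Beta-lactamase reporter under UAS control in GeneBLAzer FXR HEK 293T cells (5000/well) measured with LiveBLAzer FRET substrate after 2 h at room temperature. Compound exposure lasted 16 h at 37C.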

[3] = qHTS assay to identify small molecule antagonists of the farnesoid-X-receptor (FXR) signaling pathway - cell viability counter screen (AID 743221; active = well fitted cell-killing curve with a large enough effect in the repeat runs, not every such curve was filed as active; inconclusive = weak or mixed curves, or effect the other way; inactive = no such curve, though single readings can be large or run the other way; note: nearly all actives have a fitted effect of over 50% in size; note: potency is the fitted concentration of half-maximal effect; for activity change, negative = cytotoxicity: % is set by controls: 0 for no effect and ±100 for the full control effect); conditions: FXR-bla HEK293T viability, CellTiter-Glo luminescence, 16 h; activity change, negative = cytotoxicity: at 62.6 µM (top of the series) unless noted
Procedure, shortened: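 FXR-UAS-bla HEK 293T cells were treated with test compounds plus chenodeoxycholic acid (50 uM final) for 16 h at 37 C. Cell viability in the same wells was then read as CellTiter-Glo luminescence after 30 min at room temperature.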

[4] = qHTS assay to identify small molecule agonists of the NFkB signaling pathway (AID 1159509; active = well fitted curve in the direction sought with a large enough effect in the signal ratio in the repeat runs, not every such curve was filed as active; inconclusive = weak or mixed curves, or a change in a side signal; inactive = no such curve, though single readings can be large or run the other way; the % refers to the signal ratio; note: potency is the fitted concentration of half-maximal effect; for activation: % is set by controls: 0 for no effect and ±100 for the full control effect); conditions: NFkB-bla ME-180 cells, beta-lactamase FRET ratio, 5 h; activation: at 61 µM (top of the series) unless noted
Procedure, shortened: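 NFkB-bla ME-180 cells with a beta-lactamase reporter under an NF-kB response element were plated overnight, treated with compounds in DMSO for 5 hr at 37 C, then loaded with FRET substrate for 1.5 hr at room temperature.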

[5] = qHTS assay to identify small molecule antagonists of the vitamin D receptor (VDR) signaling pathway - cell viability counter screen (AID 743225); conditions: VDR-bla HEK293T viability, CellTiter-Glo luminescence, 16 h; viability change, negative = cytotoxic: at 61 µM (top of the series); note: potency is the fitted concentration of half-maximal effect; nearly all actives have a fitted effect of over 50% in size
Procedure, shortened: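 VDR-bla HEK 293T cells, 4 h pre-incubation at 37C, then compound plus 1-alpha,25-dihydroxyvitamin D3 (3 nM final) for 16 h. After the beta-lactamase FRET read, CellTiter-Glo was added to the same wells; luminescence after 30 min at room temperature.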

[6] = target: Vitamin D3 receptor (Homo sapiens) (UniProt P11473); assay: qHTS assay to identify small molecule agonists of the vitamin D receptor (VDR) signaling pathway (AID 743222; calls by dose curve; note: % is set by controls: 0 for no effect and ±100 for the full control effect); conditions: HEK293T VDR-UAS-bla, beta-lactamase FRET ratio, 16 h; activation: at 63.5 µM (top of the series) unless noted
Chain of UniProt P11473 (P11473 whole entry, looked up): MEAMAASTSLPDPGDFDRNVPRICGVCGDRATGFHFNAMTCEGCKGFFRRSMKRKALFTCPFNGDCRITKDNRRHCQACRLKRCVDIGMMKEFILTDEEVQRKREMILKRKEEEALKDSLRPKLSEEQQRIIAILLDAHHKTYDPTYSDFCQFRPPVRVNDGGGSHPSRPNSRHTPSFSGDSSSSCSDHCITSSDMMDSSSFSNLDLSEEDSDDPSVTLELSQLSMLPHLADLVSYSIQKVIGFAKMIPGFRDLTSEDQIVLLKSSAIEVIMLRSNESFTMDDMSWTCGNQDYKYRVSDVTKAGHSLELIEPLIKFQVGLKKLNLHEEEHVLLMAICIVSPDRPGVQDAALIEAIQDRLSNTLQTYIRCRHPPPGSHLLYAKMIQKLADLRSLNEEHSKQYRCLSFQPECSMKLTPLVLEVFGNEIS
Procedure, shortened: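 VDR-bla cells plated 4 h at 37 C, then exposed to compounds for 16 h at 37 C. Beta-lactamase reporter activity measured by fluorescence after 2 h room-temperature loading with LiveBLAzer B/G FRET substrate.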

[7] = target: Vitamin D3 receptor (Homo sapiens) (UniProt P11473); assay: qHTS assay to identify small molecule antagonists of the vitamin D receptor (VDR) signaling pathway (AID 743223; active = well fitted inhibition curve with a large enough effect in the signal ratio in the repeat runs, not every such curve was filed as active; inconclusive = weak or mixed curves, or effect the other way; inactive = no such curve, though single readings can be large or run the other way; the % refers to the signal ratio; note: potency is the fitted concentration of half-maximal effect); conditions: VDR-UAS-bla HEK293T, beta-lactamase FRET ratio, 16 h; activity change, negative = inhibition: at 61 µM (top of the series) unless noted
Procedure, shortened: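 VDR-bla cells were plated, incubated 4 h at 37C, then given compound and 1alpha,25-dihydroxyvitamin D3 (3 nM final). After 16 h at 37C, LiveBLAzer B/G FRET substrate was added for 2 h at room temperature and fluorescence read.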
Tags give direction and shape of the fitted curve or compound fluorescence and quenching.

For `c1ccc(NNc2ccccc2)cc1`, the Potency [1] was inconclusive: 6.98 µM [rising, partial curve, poor fit], the Potency [2] was “inactive” and the Potency [3] was “inactive”. The Potency [4] was inconclusive: 49.4 µM [falling, partial curve].

For `CCOC(=O)C(C)OC(=O)c1cc(Oc2ccc(C(F)(F)F)cc2Cl)ccc1[N+](=O)[O-]` (stereo not given), the Potency [1] was inconclusive: 48.7 µM [rising, partial curve, poor fit] and inconclusive: 43.6 µM [rising, partial curve, poor fit], the Potency [5] was inconclusive: 0.389 µM [cytotoxic, full curve, poor fit] and the Potency [4] was inconclusive: 54.7 µM [falling, single point].

With `O=S1(=O)OCC2C(CO1)C1(Cl)C(Cl)=C(Cl)C2(Cl)C1(Cl)Cl` (stereo not given) the Potency [1] was inconclusive: 61.6 µM [cytotoxic, single point], the Potency [3] was inconclusive: 54.9 µM and the Potency [5] was inconclusive: 61.6 µM [cytotoxic, single point]. For the same compound, the Potency [4] was inconclusive: 54.9 µM [falling, partial curve, poor fit].

For `CCOC(=O)C1(c2ccccc2)CCN(CCc2ccc(N)cc2)CC1`, the Potency [6] was “inactive” and the Potency [4] was “inactive”.

With `COC(=O)c1cc(Oc2ccc(Cl)cc2Cl)ccc1[N+](=O)[O-]` the Potency [2] was “inactive”, the activity change, negative = inhibition [7] was inconclusive: -16.3% and the Potency [4] was inconclusive: 54.9 µM.

With `O=C(O)COc1ccc(Cl)cc1` the Potency [7] was inconclusive: 12.3 µM [activator, full curve] and the Potency [4] was “inactive”.

With `O=C(O)c1ccc(=O)[nH]c1` the activation [6] was inconclusive: 0.523% and the Potency [4] was inconclusive: 30.1 µM [activator, partial curve, poor fit].
